# Assay results as given in the supplement of paper PMC11417369.
# Some of the results follow.
# System: PfSIP2 AP2 domain 1 (GST-tagged)
# Test: gcPBM binding intensity (ln(normalized median fluorescence intensity)); higher = stronger DNA binding
# Procedure, shortened: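 In this array assay, P. falciparum DNA-binding domains with a GST tag, expressed in E. coli, were applied for 1 h to primer-extended double-stranded 36-bp intergenic genomic probes and negative controls on an Agilent 4 × 180k array. Bound protein was visualised with Alexa488 anti-GST antibody at 488 nm. Binding intensity is the highest Masliner-normalised natural-log median intensity across replicate spots of either probe orientation.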
row,Sequence,gcPBM binding intensity (ln)
1,GAATGAATACGTTTTACACACTTGAATCTAATTTCA [CACACA_site6593],6.89
2,ATTCTACTTTTATTTATTTATTTGTTTATATATATA [XGTACX_negctrl_site609],7.69
3,TTTTTTATTCATGTAACACACATTTAATTATGAATT [CACACA_site2706],6.97
4,GTGTAGATATTGAAATGTACTCTCCATATAAAATAA [XGTACX_site4713],7.07
5,AAAGAATTTGCATATACACACAAAAAAATATATACA [CACACA_site386],6.87
6,ATATATATATATATATGTACTTATTTATTTATATTA [XGTACX_site4646],9.67
7,TTACGATACTTTAGGTGTACACAAATATACATGAAT [XGTACX_site4322],7.54
8,TATAAATATAAATATACACACATATATATATATATA [CACACA_site1678],9.45
9,TTGCATTAATTTATGTGTACATATAAATTTTTATTT [XGTACX_site3060],7.41
10,CTTATAGGTCATTTCCTTGACCCCCTTTGTTGTACT [CACACA_negctrl_site551],7.24
11,ATCAGTCGGCAGGACAGTACACAGTAGCCAGAAAAT [XGTACX_site2550],6.84
12,TTATAAATAAAAAATACACACATATATTTATTTATA [CACACA_site6242],6.87
13,ATAATATATGAAAGTGGTACACAAAGGAAAATAAAA [XGTACX_site333],7.04
14,TGTAGTCTGGAGAAAAGTACACAGTATCCGGTAACT [XGTACX_site4934],6.85
15,AATAATAAATCAAACTGTACATATATTTTCAATCTA [XGTACX_site3344],7.01
16,TTTTTTTTTTTGTTCACACATATATATATATATATA [CACACA_site5376],9.22
17,TTCTTCTAATCCTTTTATCTCATTAAAAAAATATAA [CACACA_negctrl_site12],7.57
18,TATACATACACATACACACATACACCCATACACATA [CACACA_site1746],7.24
19,GGTTATATATTTTTTGCACACCAAAAAAGAGAATAT [CACACA_site2731],7.69
20,ATCCTAATATTGAACTGTACCTTATATGTTATTATA [XGTACX_site1014],7.12
21,TATATATATATATATACACACATATATACATATATA [CACACA_site4043],9.36
22,GGATATAACAAACACACACACACATATATATATATT [CACACA_site4141],7.22

row,Sequence,gcPBM binding intensity (ln)
1,AATACATATAATACAACACACAAGTAATATAAACCT [CACACA_site3597],7.03
2,TTTAAATGAAAAAAAGGTACACAATATTATTCTTAT [XGTACX_site8612],6.98
3,AAAAAAAAAAAACACACACACACACTAGTATATAAA [CACACA_site4783],7.26
4,AAGAAAAAAAAAAATATATATACATATATATATATA [TGCATGCA_negctrl_site485],9.11
5,AATACTTATTATGAAACACACACCAAAACTACATAA [CACACA_site270],7.17
6,AATGTATATATATATATATATATATATATTTATTTA [CACACA_negctrl_site113],7.65
7,AAGAAAATAGAAAATACACACAGCAAACAGAGGAAT [CACACA_site3785],7.09
8,ATATATATATATTTATGTACATATATTTTTTTTTTT [XGTACX_site8558],8.71
9,AATAAATAAATACATCTCAGTATATAAACAAACAAA [CACACA_negctrl_site1604],6.99
10,ATATTTAATTAAAAGAGTACTTAAATAAAATAAATG [XGTACX_site2149],6.95
11,AAGCCTTAAAAGGAAAGTACGTATATATATATATAT [XGTACX_site8559],9.41
12,ATGAAACATGTATATTGTACTCTGGATCAATTTAAT [XGTACX_site6413],7.16
13,AAATTTATTATATATACATGCAATCATAAATAATGT [TGCATGCA_site539],7.04
14,AAAAAGGATAAACACACACACACACCGATATATATA [CACACA_site8206],7.42
15,TTATTTTTGTGTAAGGTGCTATATATAATGTTTTTA,8.24
16,AAATGTGATATAAGTACACACACATATGTATATATA [CACACA_site8539],7.18
17,AACGAAATCATCAAGTGTACTAGTTTATTATTAATA [XGTACX_site6161],6.79
18,TATGTATATTATATGACACACATTTATATATATATA [CACACA_site1167],9.22
19,AATAAATAAATAAATATATATATATATATATATATG [CACACA_negctrl_site899],7.69
20,TTTTGTTGATTTATATCTGTAGGGTTTAATATAACA [XGTACX_negctrl_site174],7.01
21,AAAATAAAATAAAACACAAAAAAATAAAACAAAATA [CACACA_negctrl_site16],7.11
22,TATATATCCATGTGTACACACAAAAAAAAATAAAGT [CACACA_site7107],7.63

row,Sequence,gcPBM binding intensity (ln)
1,AAATATGTTTATATATGTACTTATAATTCAAAATAT [XGTACX_site2167],7.01
2,TCTATGCGTTTTAATAGTACATATAAAATTTATACA [XGTACX_site6986],7
3,AAATAAAATATATACATATATATATTATTTAGTAAT [XGTACX_negctrl_site375],6.91
4,CCATGTCACAATTTTTCACACACAAAATTTATATAC [CACACA_site8628],7.39
5,ATATACACACATAAGTGTACTTATATTTCATATATA [XGTACX_site8646],6.9
6,TAATTAACAAACTATAGTACACAAAATACTTCATAT [XGTACX_site6375],7.12
7,TTAACTATGAATACATGTACATGAAAATATTTCAAT [XGTACX_site1069],6.9
8,GGCAAATTTATTATACCCACATACATACATACATAC [XGTACX_negctrl_site186],8.07
9,AAATTAATAAAAAATGGTACACAAAATGGATGTATA [XGTACX_site1561],7.05
10,AAAATTAAACAAAGTTGTACAAAATAATAATAAAAG [XGTACX_site7515],7.23
11,TTTATATTAATTGATGTGCACTGAAATATTTGTCCA [GTGCAC_site9655],10.2
12,ACCCTATAGGTAACTACACACCGCATATTGTTTACT [CACACA_site7436],7.01
13,ATATAAAAAAATTGCACACATAAATATATACATATA [CACACA_site1218],7.41
14,GATACATAGAAACACACACACATACATATATACATA [CACACA_site3438],7.04
15,TCACAAAAAGAACATTGATATTATTATAAAATCGTC [GTGCAC_negctrl_site177],6.87
16,TTTATGTACAGACATATACACACCTCTATAATATAT [CACACA_site730],7.18
17,AATTATATATTAAAAAGTACAAGTTAATATAATATA [XGTACX_site2737],7.12
18,TATTGTAATATTATATATATCTATTATGTATATAAA [CACACA_negctrl_site454],6.85
19,TAATTAAAATTATTTATAAATTAGTATATTTCTATA [CACACA_negctrl_site663],6.71
20,TTATTATTTTATCGTAGTACACCTAAATTATAAAAC [XGTACX_site5251],7.18
21,TTACAAAAATTTTGTTCACACATAAAAATATGTTAC [CACACA_site5740],6.85
22,ATATATTTTTCAAAATGTACAAATAATTAAATACCA [XGTACX_site875],7.08

row,Sequence,gcPBM binding intensity (ln)
1,TAATAAATTATTTTTTATTATTTTAATAACACTTCA [CACACA_negctrl_site3],6.62
2,GTTAGCATATTAAGTTGTACACAATTATTCTTCAAT [XGTACX_site8324],7.22
3,TGGTATTTTGATGATAAAAGGAAATTTTTTTTATAC [XGTACX_negctrl_site111],6.84
4,AACAAAGAAAATACATGTACAAAAAATATTAACGAA [XGTACX_site287],7.22
5,AATATAATATAATGCACACATAAACAAAAAAAAAAA [CACACA_site783],7.35
6,GTAATTAAAATATATACACACAAAGGCTATTAAATA [CACACA_site1011],6.96
7,TATATAAAATATTAATGTACATATAAATATATATAT [XGTACX_site6656],8.55
8,ATTTATGAAAGAAATAGTACACACATAAACATTTGT [XGTACX_site5862],6.88
9,TTTAATACGAATGAGGCACACACCTAGTATACATGC [CACACA_site621],6.96
10,CAAAATAATATATATACACACACACCGATATATATA [CACACA_site8082],7.58
11,TTTAATTTTTTTAAAACACACAAATATATATATATA [CACACA_site3898],9.34
12,TATATTTTAAAATTATGTACATATATAGATAAATGT [XGTACX_site1349],7.07
13,ATATAAATATAGTGTGCACACACATAATATATATAT [CACACA_site8713],8.66
14,ATATATATATATAATACACACATCATAAAATATGTA [CACACA_site2518],9.1
15,AAAATAAATTGTGAAGGTACACAAATTATTATGTGG [XGTACX_site4196],6.92
16,AAATACAAAATTGTTACACACATATTAATTATGACA [CACACA_site476],6.89
17,TATCATCATGTATGTACACACATACAGATATTATGT [CACACA_site4888],7.04
18,AATCATATTTAGATTACACACAGTTTAAATATTTTA [CACACA_site1263],6.75
19,TATATATATATATATATATATATATATATAATATTA [XGTACX_negctrl_site558],9.75
20,TATTTAAATGGATGCACACATGCATTAAATAAAATA [CACACA_site3433],8.43
21,TGTAATGTTTACAACACACAAATTATAAATACAAAA [CACACA_site5047],6.89
22,TCGATATATAGACACACACACTTTTAATAATTAAAT [CACACA_site7726],7.28
